For assay [1], the target named is T1, CJD1_(60–164), LexA fusion (bait of the library screen) (Arabidopsis thaliana) (UniProt Q93WG3).
T1 sequence: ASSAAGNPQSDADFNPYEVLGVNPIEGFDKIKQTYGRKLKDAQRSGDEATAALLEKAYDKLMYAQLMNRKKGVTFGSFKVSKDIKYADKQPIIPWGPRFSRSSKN
Nature of the assay: two-hybrid; library screen by Hybrigenics: LexA-CJD1(60-164) in pB27 as bait, random-primed A. thaliana one-week old seedling cDNA library in pP6 as prey; mating of Y187 and L40ΔGal4; His+ colonies on medium lacking tryptophan, leucine and histidine.

The target in assay [2] is T2, ARC6_(120–331) (Arabidopsis thaliana) (UniProt Q9FIG9).
T2 sequence: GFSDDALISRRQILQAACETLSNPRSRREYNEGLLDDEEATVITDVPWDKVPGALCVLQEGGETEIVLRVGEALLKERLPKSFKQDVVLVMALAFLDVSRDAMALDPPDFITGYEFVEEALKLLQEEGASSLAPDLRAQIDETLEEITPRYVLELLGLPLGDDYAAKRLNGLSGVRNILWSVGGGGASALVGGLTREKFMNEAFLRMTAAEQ
Nature of the assay: two-hybrid; directed Y2H with Clontech MatchMaker GAL4 Two-Hybrid System 3 (pGADT7/pGAD-GW and pGBKT7/pGBK-GW constructs); growth on selective medium.

Assay [3] addresses T3, ARC6_(84–169) (Arabidopsis thaliana) (UniProt Q9FIG9).
T3 sequence: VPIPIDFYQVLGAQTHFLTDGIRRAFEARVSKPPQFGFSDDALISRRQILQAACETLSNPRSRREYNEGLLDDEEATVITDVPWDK
The assay is described as above.

For assay [4], the target named is T4, ARC6_(84–210) (Arabidopsis thaliana) (UniProt Q9FIG9).
T4 sequence: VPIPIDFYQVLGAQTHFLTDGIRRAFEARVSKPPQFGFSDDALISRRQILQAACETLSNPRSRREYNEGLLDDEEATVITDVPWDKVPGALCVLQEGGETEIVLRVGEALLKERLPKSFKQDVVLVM
The description is as above.

Assay [5] addresses T5, ARC6_(84–250) (Arabidopsis thaliana) (UniProt Q9FIG9).
T5 sequence: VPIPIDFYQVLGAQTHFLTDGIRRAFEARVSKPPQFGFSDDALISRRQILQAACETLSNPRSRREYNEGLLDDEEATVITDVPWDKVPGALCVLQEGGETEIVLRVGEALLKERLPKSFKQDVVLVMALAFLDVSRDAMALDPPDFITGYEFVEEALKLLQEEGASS
The assay is described as above.

Assay [6] deals with T6, ARC6_(84–290) (Arabidopsis thaliana) (UniProt Q9FIG9).
T6 sequence: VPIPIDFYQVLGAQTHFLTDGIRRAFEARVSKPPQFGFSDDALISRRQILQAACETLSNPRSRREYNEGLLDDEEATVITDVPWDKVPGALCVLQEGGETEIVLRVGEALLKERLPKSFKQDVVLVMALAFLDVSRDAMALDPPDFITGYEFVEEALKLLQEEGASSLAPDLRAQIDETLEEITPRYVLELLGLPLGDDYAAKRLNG
Described as above.

The target in assay [7] is T7, Mature cpHSP70-1 (aa77–718) (Arabidopsis thaliana) (UniProt Q9STW6).
T7 sequence: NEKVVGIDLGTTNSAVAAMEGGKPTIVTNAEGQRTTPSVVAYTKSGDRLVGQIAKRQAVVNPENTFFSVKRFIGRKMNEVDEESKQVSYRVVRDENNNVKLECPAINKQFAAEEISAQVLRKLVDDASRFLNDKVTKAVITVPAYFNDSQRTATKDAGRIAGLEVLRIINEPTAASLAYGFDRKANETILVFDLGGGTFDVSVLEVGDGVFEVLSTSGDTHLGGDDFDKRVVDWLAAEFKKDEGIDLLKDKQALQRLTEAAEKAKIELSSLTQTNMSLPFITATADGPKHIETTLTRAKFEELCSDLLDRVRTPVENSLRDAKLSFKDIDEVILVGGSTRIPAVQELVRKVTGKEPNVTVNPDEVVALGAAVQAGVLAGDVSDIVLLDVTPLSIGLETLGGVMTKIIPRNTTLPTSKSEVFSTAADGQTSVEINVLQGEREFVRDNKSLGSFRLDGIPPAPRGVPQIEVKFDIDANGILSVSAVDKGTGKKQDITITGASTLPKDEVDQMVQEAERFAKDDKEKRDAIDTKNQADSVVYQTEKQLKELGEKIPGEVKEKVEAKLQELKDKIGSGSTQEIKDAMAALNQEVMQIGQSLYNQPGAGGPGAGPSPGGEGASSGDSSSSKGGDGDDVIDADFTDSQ
The description is as above.

These are yes or no findings as the source states them, for the method shown. Some results given as binding are weak or reduced against the parent protein; the word gives no strength. Where a sequence is shown, tags or fusion partners need not be part of it.

B1: ATSIZ1/SIZ1 library clone, prey fragment nucleotides 387-1984 (domain or fragment, UniProt Q680Q4 130-661)
chain: EDPRCHVWQHVGCVILPDKPMDGNPPLPESFYCEICRLTRADPFWVTVAHPLSPVRLTATTIPNDGASTMQSVERTFQITRADKDLLAKPEYDVQAWCMLLNDKVLFRMQWPQYADLQVNGVPVRAINRPGGQLLGVNGRDDGPIITSCIRDGVNRISLSGGDVRIFCFGVRLVKRRTLQQVLNLIPEEGKGETFEDALARVRRCIGGGGGDDNADSDSDIEVVADFFGVNLRCPMSGSRIKVAGRFLPCVHMGCFDLDVFVELNQRSRKWQCPICLKNYSVEHVIVDPYFNRITSKMKHCDEEVTEIEVKPDGSWRVKFKRESERRELGELSQWHAPDGSLCPSAVDIKRKMEMLPVKQEGYSDGPAPLKLGIRKNRNGIWEVSKPNTNGLSSSNRQEKVGYQEKNIIPMSSSATGSGRDGDDASVNQDAIGTFDFVANGMELDSISMNVDSGYNFPDRNQSGEGGNNEVIVLSDSDDENDLVITPGPAYSGCQTDGGLTFPLNPPGIINSYNEDPHSIAGGSSGLGLFND
In the case of B1, the binding entry in assay [1] is “binds”.

B2: CJD1_(60–164), GAL4 fusion (directed yeast 2-hybrid) (domain or fragment, UniProt Q93WG3 60-164)
chain: T1 sequence
On to B2, for which the binding result in assay [2] is listed as “no binding”; in assay [3] it was “no binding”; in assay [4] it was “no binding”; in assay [5] it was “no binding”; in assay [6], “binds”; in assay [7], “no binding”.

B3: ARC6 library clone, prey fragment nucleotides 129-1020 (domain or fragment, UniProt Q9FIG9 44-340)
chain: DRLLSDFNFTSDSSSSSFATATTTATLVSPPPSIDRPERHVPIPIDFYQVLGAQTHFLTDGIRRAFEARVSKPPQFGFSDDALISRRQILQAACETLSNPRSRREYNEGLLDDEEATVITDVPWDKVPGALCVLQEGGETEIVLRVGEALLKERLPKSFKQDVVLVMALAFLDVSRDAMALDPPDFITGYEFVEEALKLLQEEGASSLAPDLRAQIDETLEEITPRYVLELLGLPLGDDYAAKRLNGLSGVRNILWSVGGGGASALVGGLTREKFMNEAFLRMTAAEQVDLFVATPS
Consider B3, for which the binding result in assay [1] is on record as “binds”.

B4: ARC6 library clone, prey fragment nucleotides 192-961 (domain or fragment, UniProt Q9FIG9 65-320)
chain: TTTATLVSPPPSIDRPERHVPIPIDFYQVLGAQTHFLTDGIRRAFEARVSKPPQFGFSDDALISRRQILQAACETLSNPRSRREYNEGLLDDEEATVITDVPWDKVPGALCVLQEGGETEIVLRVGEALLKERLPKSFKQDVVLVMALAFLDVSRDAMALDPPDFITGYEFVEEALKLLQEEGASSLAPDLRAQIDETLEEITPRYVLELLGLPLGDDYAAKRLNGLSGVRNILWSVGGGGASALVGGLTREKFMN
For B4, the binding entry in assay [1] is recorded as “binds”.

B5: At2g22100 (RNA recognition motif (RRM) containing) library clone, prey fragment nucleotides 3-540 (domain or fragment, UniProt Q9SHZ5 2-180)
chain: AKEGEERKKEKKEKKERKERKRREAEELAVREKKISKKHKSKSKEEEKPEKSKKKSKKYEEVEEEEKSPSPSPSPKKSKESKKKHKRSSDESEEIVDSKPVTVPIVTIESDSDFEFDKEDIKNLLESYSKEELINLIYKTAEKGSKLISAVFESADRDSSQRNIFVRGLGWDTTHENLK
In the case of B5, the binding result in assay [1] is recorded as “binds”.

B6: ARC6 library clone, prey fragment nucleotides 174-1265 (domain or fragment, UniProt Q9FIG9 59-422)
chain: SSFATATTTATLVSPPPSIDRPERHVPIPIDFYQVLGAQTHFLTDGIRRAFEARVSKPPQFGFSDDALISRRQILQAACETLSNPRSRREYNEGLLDDEEATVITDVPWDKVPGALCVLQEGGETEIVLRVGEALLKERLPKSFKQDVVLVMALAFLDVSRDAMALDPPDFITGYEFVEEALKLLQEEGASSLAPDLRAQIDETLEEITPRYVLELLGLPLGDDYAAKRLNGLSGVRNILWSVGGGGASALVGGLTREKFMNEAFLRMTAAEQVDLFVATPSNIPAESFEVYEVALALVAQAFIGKKPHLLQDADKQFQQLQQAKVMAMEIPAMLYDTRNNWEIDFGLERGLCALLIGKVDECR
For B6, the binding result in assay [1] was “binds”.

B7: ARC6 library clone, prey fragment nucleotides 159-1030 (domain or fragment, UniProt Q9FIG9 54-343)
chain: SDSSSSSFATATTTATLVSPPPSIDRPERHVPIPIDFYQVLGAQTHFLTDGIRRAFEARVSKPPQFGFSDDALISRRQILQAACETLSNPRSRREYNEGLLDDEEATVITDVPWDKVPGALCVLQEGGETEIVLRVGEALLKERLPKSFKQDVVLVMALAFLDVSRDAMALDPPDFITGYEFVEEALKLLQEEGASSLAPDLRAQIDETLEEITPRYVLELLGLPLGDDYAAKRLNGLSGVRNILWSVGGGGASALVGGLTREKFMNEAFLRMTAAEQVDLFVATPSNIP
B7: the binding entry in assay [1] was “binds”.

B8: At2g35500 (Shikimate kinase-related) library clone, prey fragment nucleotides 15-1090 (domain or fragment, UniProt O82290 6-363)
chain: SGLAIIFNSPSLNPVTTQATFLSSNRIRSSPRVFSGFHSLRRRGFRRFSQNVIPDRFNSFSCNCLSAVSTSTIDYEFTDGGKEVELRLRLKTGEILSPKDISVDADGTSLAVKEKRNGLLITLLETNHLFEKIMPSETIWYIDEDQLVVNMKKVDGELKWPDIVESWESLTAGMMQLLKGASIYIVGDSTEINQKVSRELAVGLGYSPLDSKELLESFSKQTIDSWILAEGPDSVAEAESSVLESLSSHVRTVVSTLGGKHGAAGRADQWRHLYSGFTVWVSQTEATDEESAKEEARRSKQEREIGYSNADVVVKLQGWDPTHAKSVAQASLSALKQLIISDKGLPGKKSLYIRLGCR
As for B8, in assay [1], the binding entry is “binds”.

B9: ARC6 library clone, prey fragment nucleotides 240-968 (domain or fragment, UniProt Q9FIG9 81-323)
chain: ERHVPIPIDFYQVLGAQTHFLTDGIRRAFEARVSKPPQFGFSDDALISRRQILQAACETLSNPRSRREYNEGLLDDEEATVITDVPWDKVPGALCVLQEGGETEIVLRVGEALLKERLPKSFKQDVVLVMALAFLDVSRDAMALDPPDFITGYEFVEEALKLLQEEGASSLAPDLRAQIDETLEEITPRYVLELLGLPLGDDYAAKRLNGLSGVRNILWSVGGGGASALVGGLTREKFMNEAF
B9: the binding entry in assay [1] was “binds”.

B10: At5g53140 (Protein phosphatase 2C, putative) library clone, prey fragment nucleotides 495-978 (domain or fragment, UniProt Q94AT1 166-326)
chain: TKLALNETYKQTDVAFLESEKDTYRDDGSTASAAVLVGNHLYVANVGDSRTIVSKAGKAIALSDDHKPNRSDERKRIESAGGVIMWAGTWRVGGVLAMSRAFGNRMLKQFVVAEPEIQDLEIDHEAELLVLASDGLWDVVPNEDAVALAQSEEEPEAAARK
For the molecule B10, in assay [1], the binding result was “binds”.

These data come from article PMC3196505.
